The source of these data is PubChem BioAssay AID687022 (Broad Institute, 2013).

Out of some 1,000 compounds screened, about 360 (36%) were called active.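 Rule for the calls: active = Fitted curve of melting temperature shift crosses the 1.0 threshold at or below the sample's highest valid tested concentration; inconclusive = Flat fit with activity 30 to 70, or invalid fit; inactive = Opposite direction, flat within 30, or no crossing.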 The list lacks most of the strong results.

This assay addresses Fibroblast growth factor 22 (Homo sapiens) (UniProt Q9HCT0). Put plainly: FGF22 ligand-induced thermal stabilization – biophysical, thermal shift, cherry-pick, FGF22 synaptogenesis inhibitor project, dose response (AID 687022). Note: reference of the scale not given here. The note with it: recombinant FGF22 thermal shift, SYPRO orange melting; at 38 µM (top of the series) unless noted.
Chain of UniProt Q9HCT0 (Q9HCT0 whole entry, looked up): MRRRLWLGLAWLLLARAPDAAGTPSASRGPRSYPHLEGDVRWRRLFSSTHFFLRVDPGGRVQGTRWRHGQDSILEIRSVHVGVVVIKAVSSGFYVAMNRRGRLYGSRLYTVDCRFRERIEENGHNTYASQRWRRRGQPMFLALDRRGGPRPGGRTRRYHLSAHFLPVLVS
Take `CCC(=O)N1[C@H](CO)[C@@H](c2ccccc2)[C@H]1CN(C)C(=O)CN1CCOCC1`: the Tm shift activity is inactive: -0.119%.

Regarding `Cc1ccc(S(=O)(=O)Nc2nc3ccccc3s2)cc1[N+](=O)[O-]`, the Tm shift activity is inactive: 0.122%.

In the case of `Cc1ccc(S(=O)(=O)N[C@H]2C=C[C@@H](CC(=O)NCc3ccc(Cl)c(Cl)c3)O[C@H]2CO)cc1`, the Tm shift activity was inactive: 0.073%.

For the molecule `C[C@H]1CN([C@@H](C)CO)C(=O)c2cc(NS(=O)(=O)c3cn(C)cn3)ccc2O[C@H]1CN(C)Cc1ccccc1`, the Tm shift activity is inactive: -0.139%.

Take `Cc1ccc(-c2ccc([C@@H]3[C@@H](CO)N4C(=O)CN(C(=O)c5ccc(F)cc5)C[C@H]34)cc2)cc1`: the Tm shift activity was inactive: 14.5%.

Turning to `C[C@H](NC(=O)C[C@@H]1CC[C@@H](NC(=O)Nc2ccc3c(c2)OCO3)[C@@H](CO)O1)c1ccccc1`, the Tm shift activity was inactive: 0.013% [at 42 µM].

For the molecule `Cc1nc2ccc(NC(=O)c3cc([N+](=O)[O-])cc([N+](=O)[O-])c3Cl)cc2s1`, the Tm shift activity was inactive: 0.47%.

Turning to `CCOC(=O)Cn1c2ccccc2n2nc(CCC(=O)O)c(=O)nc12`, the Tm shift activity is inactive: -0.267%.

Consider `CCS(=O)(=O)N[C@@H]1CC[C@H](CC(=O)Nc2ccc(-c3ccccc3)cc2)O[C@@H]1CO`, for which the Tm shift activity is inactive: 0.011% [at 35 µM].

Turning to `COc1ccc(C)cc1NC(=O)C1CCN(S(=O)(=O)c2cccs2)CC1`, the Tm shift activity was inactive: 0.023%.

Turning to `Nc1n[nH]c(=S)n1/N=C1/C(=O)Nc2ccccc21`, the Tm shift activity is inactive: -1.04% [at 19.5 µM].

On to `C[C@H]1CN([C@@H](C)CO)C(=O)Cc2cc(NS(=O)(=O)c3ccc(F)cc3)ccc2O[C@H]1CN(C)CC1CCCCC1`, for which the Tm shift activity is inactive: -0.208%.

As to `O=[N+]([O-])c1ccc(Cl)c(S(=O)(=O)Nc2ccc(S(=O)(=O)N3CCOCC3)cc2)c1`, the Tm shift activity is inactive: -0.245%.

Turning to `CO[C@@H]1CN(C)C(=O)c2ccc(NS(=O)(=O)c3ccc(F)cc3)cc2OC[C@@H](C)N(C)C[C@H]1C`, the Tm shift activity is inactive: -0.057%.

As to `COc1ccccc1C(=O)NNC(=O)c1ccc(NC(=O)c2ccccc2)cc1`, the Tm shift activity was inactive: 0.273%.

For `COc1ccc(NC(=O)CCCN2C(=O)CN(C)C2=O)c(OC)c1`, the Tm shift activity was inactive: -0.758%.

For the molecule `CCNC(=O)Nc1ccc2c(c1)C(=O)N(C)[C@H]1CC[C@H](CC(=O)NCc3ccc(F)cc3)O[C@H]1CO2`, the Tm shift activity was inactive: 0.363%.

On to `Cc1ccc(NC(=O)c2ccc(Cl)c(S(=O)(=O)NCC3CCCO3)c2)c(O)c1` (stereo unspecified), for which the Tm shift activity is inactive: 0.021%.

Turning to `O=C(N[C@H]1CC[C@@H](CCNS(=O)(=O)c2ccc(F)cc2)O[C@H]1CO)C1CCCC1`, the Tm shift activity is inactive: -0.05% [at 42 µM].

On to `CCOc1cc(-c2nc(C)c(C(C)=O)n2O)ccc1OCC(=O)Nc1ccc(F)cc1`, for which the Tm shift activity was inactive: 0.356%.

Regarding `O=C(Nc1cccc(S(=O)(=O)N2CCCCC2)c1)C1=NN(c2ccccc2)C(=O)CC1`, the Tm shift activity was inactive: 0.048%.

Consider `CCn1c(=O)[nH]c(=O)c2c(N)c(C(=O)c3cc(F)ccc3F)sc21`, for which the Tm shift activity was inactive: -0.324%.

Turning to `CC(C)c1ccc(NC(=O)Nc2nnc([C@H]3C[C@H](O)[C@@H](CO)O3)s2)cc1`, the Tm shift activity was inactive: 0.461%.

Turning to `O=C(COC(=O)CSc1ccc([N+](=O)[O-])cc1)NCCC1=CCCCC1`, the Tm shift activity is inactive: -0.227%.

With `Cc1ccc(NC(=O)C2CCCN2C(=O)Oc2ccccc2)c(C)c1` (stereo unspecified), the Tm shift activity was inactive: -0.057%.

Consider `CC1=C2[C@@H](c3ccccc3)OB(O)C[C@@H]2n2c(=O)n(-c3ccccc3)c(=O)n2C1`, for which the Tm shift activity was inactive: -0.153%.

For `C[C@H]1CN([C@@H](C)CO)S(=O)(=O)c2ccc(C#Cc3ccncc3)cc2O[C@H]1CN(C)C(=O)Nc1ccc2c(c1)OCO2`, the Tm shift activity was inactive: 0.854%.

For the molecule `CCOc1ccc(C2OC(=O)Cc3cc(OC)c(OC)cc32)cc1` (stereo unspecified), the Tm shift activity was inactive: -0.371%.

Turning to `O=[N+]([O-])c1ccc(CSc2nnc(Cc3ccccc3)o2)cc1`, the Tm shift activity is inactive: -0.077%.

Take `O=C(CC1CC1)N1CC2(C1)[C@@H](c1ccccc1)[C@@H](CO)N2S(=O)(=O)Cc1ccccc1`: the Tm shift activity is inactive: -0.102%.

With `CCCNC(=O)N1CC(=O)N2[C@H](CO)[C@@H](c3ccc(-c4cccc(C)c4)cc3)[C@@H]2C1`, the Tm shift activity was inactive: -0.405% [at 42 µM].

Consider `CC(=O)N1[C@H](CO)[C@H](c2ccccc2)[C@H]1CN(C(=O)c1cccc(F)c1)C(C)C`, for which the Tm shift activity was inactive: -0.225%.

Regarding `COC(=O)c1cn(NC(=O)Cc2ccccc2OC)c(=O)c2ccccc12`, the Tm shift activity was inactive: -0.081%.

Regarding `CCCSc1ncnc2[nH]ncc12`, the Tm shift activity is inactive: -0.089%.

With `Cc1cc(C(=O)O/N=C(\N)c2ccncc2)ccc1[N+](=O)[O-]`, the Tm shift activity is inactive: -0.188%.

Consider `COCC(=O)Nc1ccc2c(c1)[C@H]1C[C@@H](CC(=O)NCc3ccccn3)O[C@H](CO)[C@H]1O2`, for which the Tm shift activity is inactive: -0.244%.

As to `O=C(C[C@@H]1CC[C@H]2[C@@H](COC[C@@H](O)CN2CC2CCOCC2)O1)NCC1CCCCC1`, the Tm shift activity was inactive: -0.087%.

With `COc1cc(C2C(C#N)=C(N)Oc3n[nH]c(-c4cccnc4)c32)cc(Br)c1O` (stereo unspecified), the Tm shift activity was inactive: -0.165%.

Take `C[C@@H]1CN([C@H](C)CO)C(=O)Cc2cc(N(C)C)ccc2O[C@@H]1CN(C)Cc1ccc(Cl)c(Cl)c1`: the Tm shift activity was inactive: -0.391% [at 42 µM].

`COc1ccc(Cc2nnc(-c3ccccc3)o2)cc1`: the Tm shift activity is inactive: 0.016%.

With `CCN1C(=O)c2cccc3c(S(=O)(=O)Nc4ccc(O)c(C(=O)O)c4)ccc1c23`, the Tm shift activity is inactive: 0.895% [at 5 µM].

As for `COc1ccc(CN(C)C[C@H]2Oc3ccc(NC(=O)Cc4ccccc4)cc3C(=O)N([C@H](C)CO)C[C@@H]2C)cc1`, the Tm shift activity is inactive: -0.264% [at 42 µM].

On to `C[C@@H]1CN([C@H](C)CO)C(=O)CCCn2nncc2CO[C@H]1CN(C)S(=O)(=O)c1ccc(F)cc1`, for which the Tm shift activity was inactive: 0.2%.

On to `O=[N+]([O-])c1cccc(S(=O)(=O)Nc2ccc(S(=O)(=O)Nc3nccs3)cc2)c1`, for which the Tm shift activity is inactive: -0.075%.

For the molecule `O=S(=O)(NC[C@H]1N[C@H](CO)[C@H]1c1ccccc1)c1ccccc1`, the Tm shift activity is inactive: -0.134%.

For the molecule `O=C(C[C@@H]1C=C[C@H](NC(=O)Nc2cc(F)ccc2F)[C@H](CO)O1)Nc1ccc(-c2ccccc2)cc1`, the Tm shift activity was inactive: 0.09%.
